The campaign covered roughly 340,000 compounds. About 3,300 (0.97%) were called active. This list was built around the results that the source calls inconclusive (neither active nor inactive); the mix of calls is not that of the screen.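 The calls were made as follows: active = mean activation above about 17%, with every replicate also reaching it (limit read from the data, passing the limit was not always enough); inconclusive = only one of the two conditions met; inactive = the rest.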
Target: Protein FosB (Mus musculus) (UniProt P13346)
UniProt P13346, sequence (P13346 whole entry, looked up): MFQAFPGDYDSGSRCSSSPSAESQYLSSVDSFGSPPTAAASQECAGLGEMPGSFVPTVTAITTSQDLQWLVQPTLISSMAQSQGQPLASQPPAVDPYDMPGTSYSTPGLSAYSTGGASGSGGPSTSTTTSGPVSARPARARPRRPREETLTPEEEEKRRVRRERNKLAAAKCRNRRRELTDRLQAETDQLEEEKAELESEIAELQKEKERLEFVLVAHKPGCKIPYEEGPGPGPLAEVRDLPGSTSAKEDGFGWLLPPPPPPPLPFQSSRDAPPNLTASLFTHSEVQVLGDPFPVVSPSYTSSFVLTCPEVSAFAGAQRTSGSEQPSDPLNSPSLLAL
Assay: enhancers of mouse delta FosB DNA binding – biochemical, fluorescence polarization, TAMRA-CDK5 oligo, single point, primary screen (AID 493131);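 also: fluorescence polarization rise as delta FosB binds a TAMRA Cdk5 AP-1 oligo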
Conditions: purified delta FosB, at 25 µM, hits give high values, percent of positive-control signal above neutral wells

SMILES	activation
COc1ccc(Nc2cc(C)nc3c(C)cccc23)cc1OC	inconclusive: 18.7%
COc1ccccc1/C=N/NC(=O)c1ccc(-c2ccccc2)cc1	inconclusive: 17.6%
COc1ccc(-n2nnnc2SCC(=O)Nc2cc(OC)c([N+](=O)[O-])cc2C)cc1	inconclusive: 16.9%
O=S(=O)(Nc1nc2ccccc2nc1Nc1ccc(N2CCOCC2)cc1)c1cc(Cl)ccc1Cl	inactive: -14.1%
CC(C)(C)C1CCc2c(sc(NC(=O)c3ccco3)c2C(N)=O)C1 (configuration not stated)	inconclusive: 32.2%
O=C(NCCc1ccc(F)cc1)c1cccc2c1C(=O)c1ccc(N3CCC(Cc4ccccc4)CC3)cc1S2(=O)=O	inactive: -6.13%
O=C(CSc1nc2ccccc2c(=O)n1-c1ccc(Cl)cc1)N/N=C/C=C/c1ccccc1[N+](=O)[O-]	inconclusive: 28.5%
CC(=O)Nc1ccc(S(=O)(=O)NCC2CCC(C(=O)NC3CCCCCC3)CC2)cc1 (configuration not stated)	inconclusive: 32.3%
Cc1ccc(-c2nnc(NCc3nc4ccccc4[nH]3)c3ccccc23)cc1S(=O)(=O)N(C)C	inconclusive: 23.2%
O=C(Nc1nnc(Cc2ccc(F)cc2)s1)Nc1ccccc1F	active: 27.1%
COc1ccc(Nc2cc(C)c3c(O)cccc3n2)cc1	inconclusive: 17.9%
Cc1ccc(-c2n[nH]c(=O)c3ccccc23)cc1S(=O)(=O)Nc1ccc(F)cc1	inconclusive: 25.1%
Cc1cccc(CCNC(=O)CCS(=O)(=O)c2ccc(Br)cc2)c1	inconclusive: 21.4%
Cc1cc(Nc2nc3ccccc3[nH]c2=O)n(-c2ccccc2)n1	inconclusive: 16.7%
COc1cccc(OCCNS(=O)(=O)c2ccccc2[N+](=O)[O-])c1	inactive: 4.42%
CCOc1ccccc1-c1cc(C(=O)N/N=C/c2ccc(O)c(OC)c2)c2ccccc2n1	active: 24.8%
Cc1nn(CC(=O)N2CCCCC2)c(=O)c2nn(-c3ccccc3)c(C)c12	inactive: -5.62%
O=C(Nc1nc2ccc(F)cc2s1)Oc1ccccc1	inconclusive: 20.2%
COc1ccc(C)cc1NC(=O)c1cccc(C(=O)Nc2cc(C)ccc2OC)c1	inconclusive: 20.9%
CN(C)c1ccc2nc3ccc(=[N+](C)C)cc-3sc2c1	active: 40%
O=C(CCN1CCN(C/C=C/c2ccccc2)CC1)Nc1ccc(Cl)cc1	inactive: -3.17%
c1ccc(C2CC(c3ccccc3)n3c(nc4ccccc43)N2)cc1 (configuration not stated)	inconclusive: 21.9%
CCN(CC(=O)Nc1c(F)cccc1F)C(=O)Cc1cccs1	inactive: 3.46%
O=c1c2nncn2c2cc(C(F)(F)F)ccc2n1CCNc1ncc(C(F)(F)F)cc1Cl	inconclusive: 17.6%
O=c1oc(-c2ccccc2NS(=O)(=O)c2ccc3ccccc3c2)nc2ccccc12	inconclusive: 16.2%
CCCC(=O)N=C1SC2CS(=O)(=O)CC2N1c1ccc(-c2nc3ccc(C)cc3s2)cc1 (configuration not stated)	inconclusive: 16.7%

SMILES	activation
O=C(Cc1cccs1)Nc1nc2ccccc2s1	inactive: 7.63%
CC(C)(C)NC(=O)NCCc1ccccc1	inactive: -0.42%
Cc1n[nH]c(C)c1Sc1ccccc1N=Cc1cc(Cl)cc([N+](=O)[O-])c1O	active: 51.2%
COc1ccc(NC(=O)c2onc(C)c2Cl)cc1	inactive: -8.41%
COc1cc(/C=C/c2nc(-c3ccccc3O)n[nH]2)cc(OC)c1OC	inconclusive: 17.1%
CCc1nc2ccccc2c(C(=O)Oc2cccc3cccnc23)c1C	inactive: -15.9%
COC(=O)c1ccc(CNC(=O)c2ccc(S(=O)(=O)N3CCCCCC3)cc2)cc1	inconclusive: 19%
CSc1ccccc1NC(=O)CN(C)C(=O)c1cccc(S(=O)(=O)N(C)C)c1	inactive: -4.93%
Cc1ccc(CNc2ccc([N+](=O)[O-])cc2C(N)=O)cc1	inconclusive: 23.1%
COc1cc(NC(=S)NCCc2c[nH]c3ccccc23)c(OC)cc1Cl	inactive: 0.344%
O=C(Nc1ccc(-c2ccc3nncn3n2)cc1)c1ccc(Br)o1	active: 54%
CS(=O)(=O)N(Cc1ccc(C(=O)Nc2ccccc2Sc2ccccc2)cc1)c1ccccc1	inconclusive: 17.2%
Cc1ccc(OCC(=O)Nc2cccc(-c3nnc(-c4ccccc4)o3)c2)c(C)c1	inactive: -9.18%
O=c1[nH]c(SCc2ccccc2Cl)nc2c1cnn2-c1ccccc1	inconclusive: 24.9%
COc1ccc(COc2cc(-c3cccc(OC)c3)nc3ccc(NC(=O)c4ccccc4)cc23)cc1	inconclusive: 17.1%
CCN(CC)CCN(C(=O)c1ccc2ccccc2c1)c1nc2ccc(F)cc2s1	inconclusive: 21.6%
CCCCn1c(N)c(N(CC(C)C)C(=O)c2ccc(N3C(=O)c4ccccc4C3=O)cc2)c(=O)[nH]c1=O	inconclusive: 23.4%
O=c1cc(-c2ccccc2)nc(SCc2ccccc2)[nH]1	inconclusive: 23.7%
COc1ccc2c(C)cc(SCC(=O)Nc3cc(C(N)=O)cc(C(N)=O)c3)nc2c1	active: 67.6%
O=C(COC(=O)/C=C/c1ccc(Cl)cc1Cl)Nc1ccc2c(c1)OCCO2	inconclusive: 16%
COc1ccc(/C=C/C(=O)NCc2cn(C)nc2C)cc1COc1ccc(Cl)cc1Br	inconclusive: 18.8%
COc1ccc(NC(=O)NC[C@@H]2CC[C@@H](Cc3ccc(-c4ccccc4)cc3)O2)cc1	inconclusive: 22.4%
CN(C)c1ccc(C2CNC(c3ccc(Cl)c([N+](=O)[O-])c3)c3[nH]c4ccccc4c32)cc1 (configuration not stated)	inconclusive: 19.5%
COc1ccc(/C=C2\SC(=O)N=C2N)cc1	inconclusive: 17.5%
O=C(Cn1cnc2c(nnn2Cc2ccc(F)cc2)c1=O)NC1CCCC1	inconclusive: 22.7%
Nc1nc(Nc2cccc(Cl)c2)nc(NCCO)c1[N+](=O)[O-]	inactive: 4.25%
